From publication PMC4336329 (PLoS ONE, 2015)
Among all 310,000 compounds or so, about 2,200 (0.71%) showed an effect of 50% or more. The effect is printed as a negative number. The list shows a part of the results.

What follows are compounds tested against human ether-à-go-go-related gene (hERG) potassium channel (human, UniProt Q12809) (assay: primary screen, population patch clamp on CHO cells stably expressing hERG).
Chain of human ether-à-go-go-related gene (hERG) potassium channel (Q12809 whole entry, looked up): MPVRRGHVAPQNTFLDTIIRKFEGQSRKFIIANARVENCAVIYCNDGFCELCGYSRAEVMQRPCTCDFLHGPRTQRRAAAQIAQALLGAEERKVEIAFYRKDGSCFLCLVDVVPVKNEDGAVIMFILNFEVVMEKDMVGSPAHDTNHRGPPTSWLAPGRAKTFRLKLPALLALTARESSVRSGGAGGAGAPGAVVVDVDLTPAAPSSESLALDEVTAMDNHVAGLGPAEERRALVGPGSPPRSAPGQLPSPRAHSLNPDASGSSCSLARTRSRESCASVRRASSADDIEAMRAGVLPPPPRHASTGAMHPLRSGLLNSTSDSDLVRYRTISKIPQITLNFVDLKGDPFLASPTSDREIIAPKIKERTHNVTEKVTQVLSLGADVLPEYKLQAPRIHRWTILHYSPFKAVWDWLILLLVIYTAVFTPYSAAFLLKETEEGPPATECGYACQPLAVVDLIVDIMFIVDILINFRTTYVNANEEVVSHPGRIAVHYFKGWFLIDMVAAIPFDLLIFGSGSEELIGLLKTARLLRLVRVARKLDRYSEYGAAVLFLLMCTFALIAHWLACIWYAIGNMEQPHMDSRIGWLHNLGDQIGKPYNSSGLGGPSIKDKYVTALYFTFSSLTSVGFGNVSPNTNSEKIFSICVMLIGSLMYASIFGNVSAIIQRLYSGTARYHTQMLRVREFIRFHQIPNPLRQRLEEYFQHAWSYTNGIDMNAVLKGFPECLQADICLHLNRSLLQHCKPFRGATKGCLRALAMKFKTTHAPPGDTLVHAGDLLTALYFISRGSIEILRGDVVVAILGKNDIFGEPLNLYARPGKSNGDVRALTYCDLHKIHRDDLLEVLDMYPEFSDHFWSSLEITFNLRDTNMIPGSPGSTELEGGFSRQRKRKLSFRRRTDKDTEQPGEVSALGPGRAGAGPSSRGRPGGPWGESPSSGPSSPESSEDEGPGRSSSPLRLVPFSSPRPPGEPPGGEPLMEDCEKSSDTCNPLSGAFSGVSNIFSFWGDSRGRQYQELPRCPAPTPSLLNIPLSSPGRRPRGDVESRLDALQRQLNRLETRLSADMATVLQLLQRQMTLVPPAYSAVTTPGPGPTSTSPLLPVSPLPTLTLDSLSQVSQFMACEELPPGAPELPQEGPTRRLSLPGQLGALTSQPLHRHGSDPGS

Row | SMILES | hERG current change (%, negative = inhibition) at 1uM [%]
1 | CCOc1ccc(NC(=O)c2ccc(Cl)c(NC(=O)c3ccco3)c2)cc1 | 9.67
2 | CCN(CC)C(=O)Oc1ccc(OC(=O)N(CC)CC)cc1 | 13.8
3 | C=CCSc1nnc(C)c(/C=C/Nc2ccc(Cl)cc2)n1 | 7.38
4 | COc1ccc(Cc2n[nH]c(=S)o2)cc1 | 10
5 | CCCCOc1cccc(C2(C(=O)O)CCCC2)c1 | -25.8
6 | CCCc1cc(-c2n[nH]c(C(=O)OCC)c2-c2cscn2)c(O)cc1O | 0.895
7 | CCCCOP(=O)(OCCCC)/C(C#N)=C(/C)O | 5.78
8 | CCOC(=O)C1(Cc2ccccc2C)CCCN(C(=O)c2sccc2C)C1 (stereo not drawn) | 12.4
9 | NS(=O)(=O)c1cccc(NC(=O)COC(=O)Cn2cc(C(F)(F)F)ccc2=O)c1 | 17.4
10 | Cc1ccc(N=Nc2c(C)[nH]n(-c3ccccc3)c2=O)cc1Br | 8.79
11 | CC(C)c1ccc(C2NC(=O)CCC2[N+](=O)[O-])cc1 (stereo not drawn) | -6.26
12 | CC1CCC2(CC1)NC(=O)N(Cc1cccc(C(F)(F)F)c1)C2=O (stereo not drawn) | 16.2
13 | O=C(CSc1nnc(-c2cccs2)n1-c1ccccc1)N1CCCc2ccccc21 | 3.35
14 | CCCN(CC(=O)Nc1ccccc1C)C(=O)Cc1n[nH]c(=O)c2ccccc12 | 3.38
15 | Cc1cc(NCc2ccc(F)cc2)nc2cc(Cl)ccc12 | 14.3
16 | COC(=O)CCCn1nc(NC(=O)c2ccco2)cc1C | 9.2
17 | COc1ccc(S(=O)(=O)NCc2ccco2)cc1NC(=O)c1ccccc1 | 5.36
18 | Cn1cc(Br)c(C(=O)Nc2ccc3c(C(F)(F)F)cc(=O)oc3c2)n1 | 13
19 | O=C(Nc1ccc2c(c1)OCO2)Nc1ccc(Cl)cc1Cl | 7.73

Row | SMILES | hERG current change (%, negative = inhibition) at 1uM [%]
20 | O=C(NN=C1CCN(Cc2ccccc2)CC1)c1cc2ccccc2cc1O | 8.82
21 | C/C(=C\CNc1ncnc2nc[nH]c12)CO | 11.7
22 | CCOC(=O)N1CCN(CC(=O)Nc2nc3ccc(OC)cc3s2)CC1 | 4.56
23 | COc1ccc(CCN(Cc2cccs2)S(=O)(=O)c2ccc(-n3cnnn3)c(OC)c2)cc1OC | 10.8
24 | O=C(NCCc1ccccc1)C(=O)c1c(-c2ccccc2)cc2ccccn12 | 12.4
25 | COc1ccccc1OCCn1cc(/C=N/NC(N)=S)c2ccccc21 | 6.65
26 | CCCCn1c(N)c(N(CC(C)C)C(=O)CSCC(=O)Nc2ccc(C)cc2)c(=O)[nH]c1=O | 15.3
27 | O=C(O)/C=C\C(=O)Nc1ccc(N2CCN(c3ccc(Cl)cc3)CC2)cc1 | 22.4
28 | Cc1ccc(C(=O)COC(=O)C(C)N2C(=O)C3C4CCC(C4)C3C2=O)cc1C (stereo not drawn) | 4.6
29 | O=C(O)CCCn1cc(NC(=O)COc2ccccc2F)cn1 | 17.5
30 | N#C/C(=C/c1ccncc1)c1nc2ccccc2s1 | 5.07
31 | Cc1c(NC(=O)Cc2cccs2)cccc1[N+](=O)[O-] | 12.6
32 | CCn1cc(C(=O)N[C@@H](C)C(=O)OC)c(=O)c2cc3c(cc21)OCO3 | -0.822
33 | COc1ccc(NC(=O)CC2CCCC2)cc1S(=O)(=O)N1CCCCC1 | 2.09
34 | Cn1c(=O)c2c(nc(SCC(=O)O)n2Cc2cc3c(cc2Cl)OCO3)n(C)c1=O | 4.14
35 | OCC1(Cc2ccccc2)CCN(Cc2cnc(-c3cccc4ccccc34)nc2)CC1 | 12.9
36 | CCOCCCNC(=O)NC12CC3CC(CC(C3)C1)C2 | 20
37 | CC(C)NC(=O)c1cc(-c2ccco2)nn1-c1ccc(Cl)cc1 | 4.07
38 | CC(=O)N=c1sc2nc3ccccc3nc2n1N(C(C)=O)C(C)=O | 24.5

Row | SMILES | hERG current change (%, negative = inhibition) at 1uM [%]
39 | COc1ccc(CC/C(C)=N\NC(N)=O)cc1 | 15
40 | CC(=O)Nc1cc2c3c(c1)CCC(=O)N3CCC2 | 22.1
41 | O=C(CNC(=O)c1ccc([N+](=O)[O-])cc1)N/N=C/c1c[nH]c2ccccc12 | 9.45
42 | Cc1ccc([C@@H]2[C@@H]3C(=O)N(C)C(=O)[C@@H]3[C@]3(Cc4ccccc4)C(=O)N(Cc4ccccn4)CC(=O)N23)o1 | 14.5
43 | CCCC(=O)Nc1nc(-c2ccccc2)c(CC)s1 | 4.11
44 | COc1ccc(S(=O)(=O)c2c(C)c(NS(=O)(=O)c3ccccc3)cc(C)c2O)cc1 | 14.3
45 | Cc1ccc(/C=C2\SC(=S)N(CC(=O)Nc3cccnc3)C2=O)cc1 | -0.402
46 | CCC(=O)N1c2ccc(S(=O)(=O)N3CCN(C)CC3)cc2CC1C (stereo not drawn) | 4.4
47 | COc1ccc(S(=O)(=O)N2CCOCC2)cc1OC | 3.04
48 | CN1CCN(S(=O)(=O)c2cccc(C(=O)Nc3ccccc3N3CCOCC3)c2)CC1 | 11.9
49 | O=C(OCc1ccc2c(c1)OCO2)c1ccc(S(=O)(=O)N2CCCC2)cc1 | 3.44
50 | COc1ccc(C(=O)Nc2ccc3[nH]c(-c4cccc(OC)c4)cc(=O)c3c2)cc1 | 11.8
51 | COC(=O)Nc1c(-c2ccccc2)nc2ccc(Cl)cn12 | 12.9
52 | O=C(Cc1ccsc1)NCc1ccccc1F | 19.2
53 | Cc1occc1-c1nnc(SCC(=O)NCCc2ccccc2)o1 | 10.4
54 | O=C(c1sc2ccccc2c1Cl)N1CCN(c2ccccc2F)CC1 | -6.14
55 | COc1ccc(N(CC(=O)NC2CCCC2)C(=O)CCC(=O)Nc2nc(C)cs2)cc1OC | -6.07
56 | Cc1cc(C)c(OCCOCCN(C)C)c(Br)c1.O=C(O)C(=O)O | -3.91
57 | Cn1c(N2CCC(C(N)=O)CC2)nc2c1c(=O)n(Cc1ccc(Br)cc1)c(=O)n2C | -24.6
